Assay results: US20240392004A1 (IMMUNOWAKE, published 2024)
Blank lines part the entries; values can stand above or below the binder they belong to.

How the values were obtained:
[1] = target: human PD-1 on cells (HEK-PD-1 reporter cells; activated PBMC) (human); assay: cell-based or functional assay
mouse PD-1 = target: T1, mouse PD-1 (mouse); assay: PD-L1-Fc format, method not stated
T1 construct: also called mPD-1
T1 sequence (looked up): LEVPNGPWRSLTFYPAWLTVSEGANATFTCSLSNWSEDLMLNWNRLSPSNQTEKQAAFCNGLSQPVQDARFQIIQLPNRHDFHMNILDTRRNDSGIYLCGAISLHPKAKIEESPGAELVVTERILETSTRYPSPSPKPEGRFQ

human PD-1 = target: T2, human PD-1 (human); assay: PD-L1-Fc format, method not stated
T2 construct: also called hPD-1

B2: IL-12(E59A/F60A)/PD-L1(wt)-Fc (IL-12 at hinge), Table 2 (Fc fusion)
chain 1: [omitted - about 200 residues][omitted - about 250 residues]
chain 2: [omitted - about 200 residues]SGIWELKKDVYVVELDWYPDAPGEMVVLTCDTPEEDGITWTLDQSSEVLGSGKTLTIQVKAAGDAGQYTCHKGGEVLSHSLLLLHKKEDGIWSTDILKDQKEPKNKTFLRCEAKNYSGRFTCWWLTTISTDLTFSVKSSRGSSDPQGVTCGAATLSAERVRGDNKEYEYSVECQEDSACPAAEESLPIEVMVDAVHKLKYENYTSSFFIRDIIKPDPPKNLQLKPLKNSRQVEVSWEYPDTWSTPHSYFSLTFCVQVQGKSKREKKDRVFTDKTSATVICRKNASISVRAQDRYYSSSWSEWASVPCSGGGGSGGGGSGGGGSGGGGSGRNLPVATPDPGMFPCLHHSQNLLRAVSNMLQKARQTLEFYPCTSEEIDHEDITKDKTSTVEACLPLELTKNESCLNSRETSFITNGSCLASRKTSFMMALCLSSIYEDLKMYQVEFKTMNAKLLMDPKRQIFLDQNMLAVIDELMQALNFNSETVPQKSSLEEPDFYKTKIKLCILLHAFRIRAVTIDRVMSYLNASDKTHTCPPCPAPEDEGGPSVFLFPPKPKDTLMISRTPEVTCVVVDVSHEDPEVKFNWYVDGVEVHNAKTKPREEQYNSTYRVVSVLTVLHQDWLNGKEYKCKVSNKALPAPIEKTISKAKGQPREPQVYVYPPSREEMTKNQVSLTCLVKGFYPSDIAVEWESNGQPENNYKTTPPVLDEDGSFALVSKLTVDKSRWQQGNVFSCSVMHEALHNHYTQKSLSLSPGK
Biological activity of IL-12, HEK-PD-1-IL-12 reporter assay, % of rIL-12 [1]: 8.2%

B3: PD-L1(wt)-Fc/IL-12(F60A) (IL-12 at C-terminus of Fc) (Fc fusion)
chain 1: [omitted - about 200 residues][omitted - about 250 residues]
chain 2: [omitted - about 200 residues]SGDKTHTCPPCPAPEDEGGPSVFLFPPKPKDTLMISRTPEVTCVVVDVSHEDPEVKFNWYVDGVEVHNAKTKPREEQYNSTYRVVSVLTVLHQDWLNGKEYKCKVSNKALPAPIEKTISKAKGQPREPQVYVYPPSREEMTKNQVSLTCLVKGFYPSDIAVEWESNGQPENNYKTTPPVLDEDGSFALVSKLTVDKSRWQQGNVFSCSVMHEALHNHYTQKSLSLSPGKGGGGSGGGGSGGGGSIWELKKDVYVVELDWYPDAPGEMVVLTCDTPEEDGITWTLDQSSEVLGSGKTLTIQVKEAGDAGQYTCHKGGEVLSHSLLLLHKKEDGIWSTDILKDQKEPKNKTFLRCEAKNYSGRFTCWWLTTISTDLTFSVKSSRGSSDPQGVTCGAATLSAERVRGDNKEYEYSVECQEDSACPAAEESLPIEVMVDAVHKLKYENYTSSFFIRDIIKPDPPKNLQLKPLKNSRQVEVSWEYPDTWSTPHSYFSLTFCVQVQGKSKREKKDRVFTDKTSATVICRKNASISVRAQDRYYSSSWSEWASVPCSGGGGSGGGGSGGGGSGGGGSGRNLPVATPDPGMFPCLHHSQNLLRAVSNMLQKARQTLEFYPCTSEEIDHEDITKDKTSTVEACLPLELTKNESCLNSRETSFITNGSCLASRKTSFMMALCLSSIYEDLKMYQVEFKTMNAKLLMDPKRQIFLDQNMLAVIDELMQALNFNSETVPQKSSLEEPDFYKTKIKLCILLHAFRIRAVTIDRVMSYLNAS
Biological activity of IL-12, HEK-PD-1-IL-12 reporter assay, % of rIL-12 [1]: 228%

B5: PD-L1(wt)-Fc (heterodimer) (Fc fusion)
chain 1: not shown
chain 2: not shown
Kd (mouse PD-1): 5.1 µM
Kd (human PD-1): 7.5 µM

Results, then the binder that gave them:

Biological activity of IL-12, HEK-PD-1-IL-12 reporter assay, % of rIL-12 [1]: 200%
B1: PD-L1(wt)-Fc/IL-12(E59A/F60A) (IL-12 at C-terminus of Fc) (Fc fusion)
chain 1: [omitted - about 200 residues][omitted - about 250 residues]
chain 2: [omitted - about 200 residues]SGDKTHTCPPCPAPEDEGGPSVFLFPPKPKDTLMISRTPEVTCVVVDVSHEDPEVKFNWYVDGVEVHNAKTKPREEQYNSTYRVVSVLTVLHQDWLNGKEYKCKVSNKALPAPIEKTISKAKGQPREPQVYVYPPSREEMTKNQVSLTCLVKGFYPSDIAVEWESNGQPENNYKTTPPVLDEDGSFALVSKLTVDKSRWQQGNVFSCSVMHEALHNHYTQKSLSLSPGKGGGGSGGGGSGGGGSIWELKKDVYVVELDWYPDAPGEMVVLTCDTPEEDGITWTLDQSSEVLGSGKTLTIQVKAAGDAGQYTCHKGGEVLSHSLLLLHKKEDGIWSTDILKDQKEPKNKTFLRCEAKNYSGRFTCWWLTTISTDLTFSVKSSRGSSDPQGVTCGAATLSAERVRGDNKEYEYSVECQEDSACPAAEESLPIEVMVDAVHKLKYENYTSSFFIRDIIKPDPPKNLQLKPLKNSRQVEVSWEYPDTWSTPHSYFSLTFCVQVQGKSKREKKDRVFTDKTSATVICRKNASISVRAQDRYYSSSWSEWASVPCSGGGGSGGGGSGGGGSGGGGSGRNLPVATPDPGMFPCLHHSQNLLRAVSNMLQKARQTLEFYPCTSEEIDHEDITKDKTSTVEACLPLELTKNESCLNSRETSFITNGSCLASRKTSFMMALCLSSIYEDLKMYQVEFKTMNAKLLMDPKRQIFLDQNMLAVIDELMQALNFNSETVPQKSSLEEPDFYKTKIKLCILLHAFRIRAVTIDRVMSYLNAS

Biological activity of IL-12, HEK-PD-1-IL-12 reporter assay, % of rIL-12 [1]: 221%
B4: IL-12(F60A)/PD-L1(wt)-Fc (IL-12 at hinge) (Fc fusion)
chain 1: [omitted - about 200 residues][omitted - about 250 residues]
chain 2: [omitted - about 200 residues]SGIWELKKDVYVVELDWYPDAPGEMVVLTCDTPEEDGITWTLDQSSEVLGSGKTLTIQVKEAGDAGQYTCHKGGEVLSHSLLLLHKKEDGIWSTDILKDQKEPKNKTFLRCEAKNYSGRFTCWWLTTISTDLTFSVKSSRGSSDPQGVTCGAATLSAERVRGDNKEYEYSVECQEDSACPAAEESLPIEVMVDAVHKLKYENYTSSFFIRDIIKPDPPKNLQLKPLKNSRQVEVSWEYPDTWSTPHSYFSLTFCVQVQGKSKREKKDRVFTDKTSATVICRKNASISVRAQDRYYSSSWSEWASVPCSGGGGSGGGGSGGGGSGGGGSGRNLPVATPDPGMFPCLHHSQNLLRAVSNMLQKARQTLEFYPCTSEEIDHEDITKDKTSTVEACLPLELTKNESCLNSRETSFITNGSCLASRKTSFMMALCLSSIYEDLKMYQVEFKTMNAKLLMDPKRQIFLDQNMLAVIDELMQALNFNSETVPQKSSLEEPDFYKTKIKLCILLHAFRIRAVTIDRVMSYLNASDKTHTCPPCPAPEDEGGPSVFLFPPKPKDTLMISRTPEVTCVVVDVSHEDPEVKFNWYVDGVEVHNAKTKPREEQYNSTYRVVSVLTVLHQDWLNGKEYKCKVSNKALPAPIEKTISKAKGQPREPQVYVYPPSREEMTKNQVSLTCLVKGFYPSDIAVEWESNGQPENNYKTTPPVLDEDGSFALVSKLTVDKSRWQQGNVFSCSVMHEALHNHYTQKSLSLSPGK
